Measured values from the supplement of paper PMC4967469.
By IC50 is meant the dose at which the fit gives 50% viability; fits outside the tested doses are given as limits. The AUC spans the tested range (256-fold, ending at the top dose) of the same fit; the more sensitive the line, the further below 1. For part of these data: The top dose, if marked as inferred, is not printed in the source and was worked back from the curve model.

Key:
Assay in all cases: Viability of human cancer cell lines after 72 h of drug (GDSC screen)
[1] = compound: Cc1cccc(Nc2nc(-c3ccncc3)cs2)c1 [STF-62247]; settings: top dose 10.24 µM; top dose inferred
Description: (§1)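 Human cancer cell lines in 384-well plates, medium with 10% serum, drug for 72 h over a 256-fold dose range (nine 2-fold or five 4-fold steps up to the top dose). Adherent lines were fixed and stained with the nucleic acid dye Syto60, suspension lines read with resazurin; signal relative to control wells, capped at 0 and 100%. One two-parameter sigmoid per drug and line, fitted in a mixed model over all curves with the slope shared within a line.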

[2] = compound: COC1=CC(c2cc3ccccc3[nH]2)=N/C1=C\c1[nH]c(C)cc1C [Obatoclax mesylate]; settings: top dose 16 µM
Description: as §1

[3] = compound: CC(C)C[C@H](NC(=O)[C@H](Cc1ccccc1)NC(=O)c1cnccn1)B(O)O [Bortezomib]; settings: top dose 0.02 µM
Description: as §1

[4] = compound: Cc1cnc(CNC(=O)c2c(=O)c3ccc(N4CCCN(C)CC4)nc3n3c2sc2ccccc23)cn1 [CX-5461]; settings: top dose 10.24 µM; top dose inferred
Description: as §1

[5] = compound: CC(=O)O[C@H]1C(=O)[C@@]2(C)[C@H]([C@H](OC(=O)c3ccccc3)[C@]3(O)C[C@H](OC(=O)[C@H](O)[C@@H](NC(=O)c4ccccc4)c4ccccc4)C(C)=C1C3(C)C)[C@]1(OC(C)=O)CO[C@@H]1C[C@@H]2O [Paclitaxel]; settings: top dose 0.1024 µM
Description: as §1

[6] = compound: COCC(=O)NC/C=C/c1ccc2ncnc(Nc3ccc(Oc4ccc(C)nc4)c(C)c3)c2c1 [CP724714]; settings: top dose 10.24 µM; top dose inferred
Description: as §1

Row | Cell Line | AUC [1] | IC50 [1] | AUC [2] | IC50 [2] | AUC [3] | IC50 [3] | AUC [4] | IC50 [4] | AUC [5] | IC50 [5] | AUC [6] | IC50 [6]
1 | MY-M12 (leukaemia, suspension) | 0.929 | > 10200 nM | 0.318 | 288 nM | 0.438 | 0.827 nM | 0.316 | 182 nM | 0.534 | 8.04 nM | 0.789 | 5180 nM
2 | MZ1-PC (pancreas, adherent) | 0.977 | > 10200 nM | 0.242 | 146 nM | 0.637 | 3.29 nM | 0.676 | 2260 nM | 0.312 | 1.66 nM | 0.942 | > 10200 nM
3 | MZ2-MEL (melanoma, adherent) | 0.982 | > 10200 nM | 0.105 | < 62.5 nM | 0.354 | 0.457 nM | 0.905 | > 10200 nM | 0.742 | 36 nM | 0.957 | > 10200 nM
4 | MZ7-mel (melanoma, adherent) | 0.972 | > 10200 nM | 0.128 | < 62.5 nM | 0.491 | 1.18 nM | 0.935 | > 10200 nM | 0.676 | 20.2 nM | 0.978 | > 10200 nM
5 | Mo-T (hairy cell leukaemia, suspension) | 0.969 | > 10200 nM | 0.583 | 1690 nM | 0.674 | 3.85 nM | 0.788 | 4610 nM | 0.987 | > 102 nM | 0.918 | > 10200 nM
6 | NALM-6 (B-cell leukaemia, suspension) | 0.85 | 5920 nM | 0.042 | < 62.5 nM | 0.641 | 2.85 nM | 0.349 | 264 nM | 0.557 | 8.91 nM | 0.957 | > 10200 nM
7 | NB1 (neuroblastoma, semi-adherent) | 0.91 | > 10200 nM | 0.391 | 486 nM | 0.762 | 7.88 nM | 0.596 | 1200 nM | 0.691 | 23.3 nM | 0.903 | > 10200 nM
8 | NB5 (neuroblastoma, adherent) | 0.986 | > 10200 nM | 0.539 | 1280 nM | 0.591 | 2.22 nM | 0.735 | 3040 nM | 0.924 | > 102 nM | 0.964 | > 10200 nM
9 | NB6 (neuroblastoma, adherent) | 0.983 | > 10200 nM | 0.624 | 2390 nM | 0.779 | 10.2 nM | 0.908 | > 10200 nM | 0.881 | > 102 nM | 0.972 | > 10200 nM
10 | NB7 (neuroblastoma, adherent) | 0.973 | > 10200 nM | 0.443 | 696 nM | 0.734 | 6.03 nM | 0.846 | 7950 nM | 0.98 | > 102 nM | 0.803 | 5330 nM
11 | NB10 (neuroblastoma, adherent) | 0.988 | > 10200 nM | 0.642 | 2440 nM | 0.648 | 3.18 nM | 0.925 | > 10200 nM | 0.988 | > 102 nM | 0.982 | > 10200 nM
12 | NB13 (neuroblastoma, adherent) | 0.99 | > 10200 nM | 0.17 | 117 nM | 0.459 | 0.98 nM | 0.65 | 1580 nM | 0.453 | 4.84 nM | 0.99 | > 10200 nM
13 | NB14 (neuroblastoma, adherent) | 0.988 | > 10200 nM | 0.327 | 341 nM | 0.761 | 6.72 nM | 0.989 | > 10200 nM | 0.986 | > 102 nM | 0.988 | > 10200 nM
14 | NB69 (neuroblastoma, adherent) | 0.976 | > 10200 nM | 0.111 | 68.3 nM | 0.557 | 1.75 nM | 0.748 | 2970 nM | 0.873 | 79.9 nM | 0.984 | > 10200 nM
15 | NB(TU)1-10 (neuroblastoma, adherent) | 0.993 | > 10200 nM | 0.157 | 110 nM | 0.629 | 2.69 nM | 0.571 | 972 nM | 0.979 | > 102 nM | 0.985 | > 10200 nM
16 | NCI-H64 (small cell lung carcinoma, suspension) | 0.943 | > 10200 nM | 0.11 | 97.6 nM | 0.58 | 1.95 nM | 0.996 | > 10200 nM | 0.694 | 19 nM | 0.981 | > 10200 nM
17 | NCI-H211 (small cell lung carcinoma, adherent) | 0.979 | > 10200 nM | 0.157 | 91.7 nM | 0.841 | 13.3 nM | 0.682 | 2030 nM | 0.523 | 7.37 nM | 0.962 | > 10200 nM
18 | NCI-H322M (lung adenocarcinoma, suspension) | 0.972 | > 10200 nM | 0.986 | > 16000 nM | 0.926 | > 20 nM | 0.95 | > 10200 nM | 0.976 | > 102 nM | 0.975 | > 10200 nM
19 | NCI-H345 (small cell lung carcinoma, suspension) | 0.99 | > 10200 nM | 0.844 | 12300 nM | 0.794 | 9.78 nM | 0.922 | > 10200 nM | 0.871 | > 102 nM | 0.99 | > 10200 nM
20 | NCI-H510A (small cell lung carcinoma, semi-adherent) | 0.978 | > 10200 nM | 0.567 | 1500 nM | 0.617 | 2.55 nM | 0.669 | 1810 nM | 0.471 | 5.36 nM | 0.987 | > 10200 nM
